Results on 54 molecules are retold here after article PMC4336329 (PLoS ONE, 2015).

In all, about 310,000 compounds went through this assay and about 2,200 (0.71%) showed an effect of 50% or more. Effects have a minus sign here. The list shows a part of the results. Where a SMILES comes first, the peptide text is derived from it. The star is where a group is joined. Boc = CC(C)(C)OC(=O)*

The assay deals with human ether-à-go-go-related gene (hERG) potassium channel (human, UniProt Q12809). Nature of the assay: primary screen, population patch clamp on CHO cells stably expressing hERG.
Sequence of human ether-à-go-go-related gene (hERG) potassium channel (Q12809 whole entry, looked up): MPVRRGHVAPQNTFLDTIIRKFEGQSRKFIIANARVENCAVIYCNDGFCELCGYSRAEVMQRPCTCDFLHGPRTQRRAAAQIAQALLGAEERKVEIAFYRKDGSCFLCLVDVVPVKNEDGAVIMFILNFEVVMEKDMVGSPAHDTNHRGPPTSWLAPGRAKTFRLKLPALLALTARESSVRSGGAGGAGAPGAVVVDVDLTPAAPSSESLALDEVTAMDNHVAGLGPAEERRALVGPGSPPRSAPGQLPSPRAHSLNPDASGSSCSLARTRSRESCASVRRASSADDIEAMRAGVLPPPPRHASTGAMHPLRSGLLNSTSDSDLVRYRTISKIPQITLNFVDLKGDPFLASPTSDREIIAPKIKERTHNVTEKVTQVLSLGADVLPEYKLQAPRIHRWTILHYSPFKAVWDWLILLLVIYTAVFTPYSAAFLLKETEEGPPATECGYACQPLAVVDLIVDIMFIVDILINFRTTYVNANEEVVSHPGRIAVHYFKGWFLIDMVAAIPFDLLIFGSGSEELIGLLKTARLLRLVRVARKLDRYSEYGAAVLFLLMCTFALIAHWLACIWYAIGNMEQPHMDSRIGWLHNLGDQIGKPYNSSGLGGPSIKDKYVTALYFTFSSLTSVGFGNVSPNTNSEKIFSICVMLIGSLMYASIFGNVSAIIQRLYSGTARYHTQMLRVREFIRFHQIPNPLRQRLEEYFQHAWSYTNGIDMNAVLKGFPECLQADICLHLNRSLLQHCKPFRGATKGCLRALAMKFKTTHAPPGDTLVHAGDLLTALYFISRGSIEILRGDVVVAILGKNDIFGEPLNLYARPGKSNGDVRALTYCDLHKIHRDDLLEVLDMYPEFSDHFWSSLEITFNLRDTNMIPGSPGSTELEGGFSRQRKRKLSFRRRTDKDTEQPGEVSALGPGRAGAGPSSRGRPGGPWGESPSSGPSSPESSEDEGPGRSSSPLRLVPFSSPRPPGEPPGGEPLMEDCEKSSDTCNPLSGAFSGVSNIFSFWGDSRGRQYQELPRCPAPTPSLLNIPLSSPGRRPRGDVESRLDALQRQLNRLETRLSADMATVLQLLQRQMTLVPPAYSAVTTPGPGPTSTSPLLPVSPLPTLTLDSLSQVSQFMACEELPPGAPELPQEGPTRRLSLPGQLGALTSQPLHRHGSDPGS
On to `Cc1cc(C(=O)OCC(=O)Nc2c(Cl)cccc2C(F)(F)F)c(C)o1`, for which the “hERG current change (%, negative = inhibition) at 1uM” value was 15.8%.
`Cc1ncc([N+](=O)[O-])n1S(=O)(=O)c1cc(Br)ccc1Br`: the “hERG current change (%, negative = inhibition) at 1uM” value is 13%.
In the case of `Cc1nn(CC(=O)Nc2ccc(S(=O)(=O)N(C)C)cc2)c(C)c1[N+](=O)[O-]`, the “hERG current change (%, negative = inhibition) at 1uM” value is on record as -0.141%.
Next, `COc1cccc(NC(=O)CSc2nnnn2C(C)C)c1`: 7.88%; `O=C(O)C(=O)O.OC(CNCc1ccc(Cl)cc1)COc1ccccc1` (stereo not drawn): 7.68%; `O=C(NCCCc1ccccc1)c1ccccc1`: 2.8%.
For `CC1(C)C(=O)N(c2ccccc2F)C(=O)c2ccccc21`, the “hERG current change (%, negative = inhibition) at 1uM” value turned out to be 8.36%.
The figure for `Cc1cc(C(=O)CN2C(=O)NC(C)(c3cccc(Br)c3)C2=O)c(C)n1Cc1ccco1` (stereo not drawn) is 8.81%; for `Cn1cccc1Cc1nnc(SCC(=O)NCC2CCCO2)n1C` (stereo not drawn) it is 12.4%; for `CN(Cc1nccs1)C(=O)C1CCC(=O)N(CCc2ccc(Cl)cc2)C1` (stereo not drawn) it is -49.9%.
As to `Cc1cc(N)n(-c2ccc(S(=O)(=O)N3CCOCC3)cc2[N+](=O)[O-])n1`, the “hERG current change (%, negative = inhibition) at 1uM” value was -2.54%.
Turning to `Cc1ccccc1OCCC(=O)OCC(=O)Nc1c(C)nn(-c2ccccc2)c1C`, the “hERG current change (%, negative = inhibition) at 1uM” value came to 14.6%.
Take `Cc1ccc(S(=O)(=O)N(C)CC(=O)OCC(=O)NC(=O)Nc2ccc3c(c2)OCCO3)cc1`: the “hERG current change (%, negative = inhibition) at 1uM” value stood at 17.8%.
With `CC(=O)Nc1cccc(N(C)C)c1`, the “hERG current change (%, negative = inhibition) at 1uM” value worked out at 4.93%.
`O=C(NC(c1ccccc1)C(Cl)Cl)c1ccccc1` (stereo not drawn): the “hERG current change (%, negative = inhibition) at 1uM” value is 10.2%.
The figure for `COc1ccc(OC(=O)/C=C/c2ccc([N+](=O)[O-])cc2)cc1` is 11.8%; for `COC(=O)c1ccc(/C=C/c2c(-c3ccsc3)sc3ccccc23)cc1` it is 16.7%; for `Cc1ccsc1C(=O)OCC(=O)N1CCOCC1` it is 9.96%.
The figure for `O=C(c1ccc2[nH]ccc2c1)N1CCCC(Nc2ccccc2)C1` (stereo not drawn) is 11.3%; for `CCC(CC)C(=O)Nc1c(C(=O)N2CCN(c3ccccc3)CC2)oc2ccccc12` it is 10.8%.
With `O=C1C2C3C=CC(CNS(=O)(=O)c4ccccc4[N+](=O)[O-])(O3)C2C(=O)N1c1ccccc1` (stereo not drawn), the “hERG current change (%, negative = inhibition) at 1uM” value came to 8.01%.
Turning to `C=CCc1cccc2cc(C(=O)NCc3cccnc3)c(=O)oc12`, the “hERG current change (%, negative = inhibition) at 1uM” value worked out at 2.43%.
Regarding `C#CCNC(=O)[C@H](Cc1ccc(C(=O)c2ccccc2)cc1)NC(=O)OC(C)(C)C`, the “hERG current change (%, negative = inhibition) at 1uM” value was 18.7%.
Regarding `COc1ccc(NS(=O)(=O)c2ccc(N3CCCC3)c(N)c2)cc1`, the “hERG current change (%, negative = inhibition) at 1uM” value is listed as 18.1%.
`O=C(N/N=C/c1ccccc1OC(=O)c1ccc2c(c1)OCO2)c1cccc(F)c1`: the “hERG current change (%, negative = inhibition) at 1uM” value came out at 14.3%.
The figure for `COc1ccc(C)cc1NS(=O)(=O)c1ccc(-c2cnc(C3CC3)o2)cc1` is -9.89%; for `CC(=O)c1ccc(OCC(=O)NCC(c2ccco2)N2CCCCC2)cc1` (stereo not drawn) it is 4.01%.
For `CCc1ccc(NC(=O)Cc2ccc(NC3=NC4CS(=O)(=O)CC4S3)cc2)cc1` (stereo not drawn), the “hERG current change (%, negative = inhibition) at 1uM” value worked out at 8.88%.
As for `COc1ccc(O)c(/C=C(\C#N)C(=O)Nc2cccnc2)c1`, the “hERG current change (%, negative = inhibition) at 1uM” value turned out to be 14%.
As to `O=C(COc1ccc2c3c(c(=O)oc2c1)CCCC3)NCCCN1CCCC1=O`, the “hERG current change (%, negative = inhibition) at 1uM” value was found to be 9.4%.
Next, `Nc1nnc(-c2ccc(Cl)c(Cl)c2)s1`: 8.93%; `CN(/N=C/c1c[nH]c2ccccc12)c1cnn(-c2ccc(F)c(Cl)c2)c(=O)c1Cl`: -0.686%.
With `CCOC(=O)N1CCN(C(=O)CS(=O)Cc2nc(-c3cccc(C)c3)oc2C)CC1` (stereo not drawn), the “hERG current change (%, negative = inhibition) at 1uM” value was 11.8%.
`Cc1nn(CCc2nn[nH]n2)c2nc(-c3ccccc3)cc(C(F)(F)F)c12`: the “hERG current change (%, negative = inhibition) at 1uM” value is on record as 4.83%.
With `O=C(NCc1ccccc1)C1CCCN(S(=O)(=O)c2cccnc2)C1` (stereo not drawn), the “hERG current change (%, negative = inhibition) at 1uM” value was 4.88%.
The figure for `COC(=O)C1=C(C)NC(=O)NC1c1ccc(-c2ccc(Cl)cc2)o1` (stereo not drawn) is 10.1%; for `Cc1c(C(=O)O)sc2nc(CSc3ncc(C(F)(F)F)cc3Cl)[nH]c(=O)c12` it is 10.7%; for `CC(C)(C)n1nc2c(c1NC(=O)c1c(F)cccc1F)CS(=O)(=O)C2` it is 11.5%.
For `O=C(Nc1ccc(Br)cc1Cl)Nn1cnnc1`, the “hERG current change (%, negative = inhibition) at 1uM” value is reported as -1.72%.
Take `Fc1ccc(-c2csc3ncnc(N4CCN(c5ccccc5)CC4)c23)cc1`: the “hERG current change (%, negative = inhibition) at 1uM” value came to 15.3%.
With `O=C(Nc1cccc(S(=O)(=O)NC2=NCCCCC2)c1)c1cccnc1Cl`, the “hERG current change (%, negative = inhibition) at 1uM” value was 13%.
`N#Cc1ccc(CN2C(=O)NC3(CCCCCC3)C2=O)cc1`: the “hERG current change (%, negative = inhibition) at 1uM” value is recorded as -8.38%.
Consider `CC(C)CC(NC(=O)OC(C)(C)C)C(=O)NC(C(=O)N1CCCC1C(N)=O)C(C)C` (stereo not drawn) (Boc-Leu-Val-Pro-NH2; configuration not given here), for which the “hERG current change (%, negative = inhibition) at 1uM” value is -5.09%.
As to `O=C(CNC(=O)c1cccnc1)N/N=C/c1cc(Br)c(O)c(Br)c1`, the “hERG current change (%, negative = inhibition) at 1uM” value amounted to 12.6%.
With `CN(C)C(=O)CSc1nc2ccccc2n1CC(=O)N1CCN(c2ccccc2)CC1`, the “hERG current change (%, negative = inhibition) at 1uM” value amounted to 9.65%.
Next, `COc1ccc(OCC(=O)N2CCC(n3nccc3NC(=O)C3CC3)CC2)cc1`: -1.98%.
For `COc1cc(NC(=O)CN2C(=O)NC(c3ccccc3)(c3ccccc3)C2=O)cc(OC)c1`, the “hERG current change (%, negative = inhibition) at 1uM” value turned out to be 7.32%.
As for `Cc1ccc(CNC(=O)/C(C#N)=C/c2ccc(C)s2)cc1`, the “hERG current change (%, negative = inhibition) at 1uM” value was found to be 8.94%.
As for `Cc1cc2c(sc3ccccc32)c(C)n1.Cl`, the “hERG current change (%, negative = inhibition) at 1uM” value amounted to 7.1%.
For `Cl.OC(COc1ccc2c(c1)OCO2)CN1CCN(c2ccc(F)cc2)CC1` (stereo not drawn), the “hERG current change (%, negative = inhibition) at 1uM” value is given as -35.3%.
For `O=C(CCNC(=O)c1ccccc1Cl)Nc1nc2ccccc2s1`, the “hERG current change (%, negative = inhibition) at 1uM” value came to 16.9%.
Next, `COc1ccc(/C=N/NC(=O)c2cc(C)on2)c2ccccc12`: 6.71%.
As for `O=C(CN1CCN(C(=O)c2ccco2)CC1)Nc1ccc(Cl)c(S(=O)(=O)N2CCOCC2)c1`, the “hERG current change (%, negative = inhibition) at 1uM” value is 2.19%.
As to `CC(C)COc1cccc(C(=O)N2CCN(C(=O)c3ccco3)CC2)c1`, the “hERG current change (%, negative = inhibition) at 1uM” value is -1.93%.
